Measured values as given in PubChem BioAssay AID485367 (National Center for Advancing Translational Sciences (NCATS), 2010).
The campaign covered roughly 330,000 compounds. About 560 (0.17%) were called active. Inconclusive results, whose numbers are uncertain, are shown with a selection of clear calls. The call rests on the fitted dose curve; in most records, active means well fitted inhibition curve with a large enough effect; inconclusive means small, poorly fitted or top-dose-only effect, or effect the other way; inactive means flat fitted curve, though single readings scatter. No potency is given beside an inconclusive call; the fits are too rough.

Target: ATP-dependent 6-phosphofructokinase (Trypanosoma brucei brucei) (UniProt O15648)
Assay: qHTS Assay to Find Inhibitors of T. brucei phosphofructokinase; further: nearly all actives have a fitted effect of over 60% in size
Details: T. brucei PFK, ADP-Glo luminescence; series mostly up to 57.5 µM
Outline: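 Compounds were pin-transferred as a titration series up to 57 uM into substrate buffer (0.5 mM F6P, 0.1 mM ATP, pH 8.0), then 1.25 nM PFK was added and reactions ran 45 min before ADP-Glo detection.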
Potency means the concentration at half of the fitted maximal effect; tags describe the fitted curve by direction and shape.

Chain of UniProt O15648 (O15648 whole entry, looked up): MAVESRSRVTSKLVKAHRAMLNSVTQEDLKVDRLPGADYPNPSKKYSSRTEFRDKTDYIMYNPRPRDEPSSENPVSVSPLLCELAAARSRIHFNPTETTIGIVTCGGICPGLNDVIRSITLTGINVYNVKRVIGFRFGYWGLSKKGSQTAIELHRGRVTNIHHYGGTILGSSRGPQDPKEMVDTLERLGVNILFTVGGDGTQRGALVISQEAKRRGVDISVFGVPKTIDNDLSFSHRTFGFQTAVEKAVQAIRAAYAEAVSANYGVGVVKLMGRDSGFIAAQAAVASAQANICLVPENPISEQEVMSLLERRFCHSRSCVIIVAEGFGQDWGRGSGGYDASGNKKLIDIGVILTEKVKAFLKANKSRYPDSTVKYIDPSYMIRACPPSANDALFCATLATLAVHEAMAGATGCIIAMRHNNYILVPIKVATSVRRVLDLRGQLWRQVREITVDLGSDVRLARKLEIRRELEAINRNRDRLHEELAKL

Structure (SMILES) | Potency
Clc1ccc(Cn2cc(/C=N/n3cnnc3)c3ccccc32)cc1 | inconclusive [falling, partial curve]
Cc1cc(C)n(CCc2nc(-c3ccco3)cs2)n1 | inconclusive [falling, single point]
O=C(CCNC(=O)c1ccc([N+](=O)[O-])cc1)Oc1ccc(F)c(F)c1 | inconclusive [falling, single point]
CC(C)(CO)CNC(=O)c1ccc2nc(Cc3cccc(Cl)c3)oc2c1 | inconclusive [falling, single point]
O=C1OC(/C(=C\Nc2cc(Cl)ccc2O)[N+](=O)[O-])c2ccccc21 (stereo not drawn) | inconclusive [activator, full curve]
COc1ccc(-c2cc(C(F)F)n3ncc(C(=O)Nc4cc(C)on4)c3n2)cc1 | inactive
O=C1N/C(=N/O)S/C1=C/c1cccnc1 | inactive
CCCCN(C(=O)c1cccc2c(=O)c(C)c(-c3ccccc3)oc12)c1ccccc1 | inactive
Cc1nc(N)sc1-c1csc(Nc2ncccn2)n1 | inconclusive [activator, single point]
N#Cc1c(-c2cccc(Br)c2)cc(-c2cccnc2)nc1N | inactive
O=C(COC(=O)c1ccccc1O)NCc1ccco1 | inconclusive [falling, full curve]
CC(C)c1c(Cl)c(O)c(-c2ccccc2)c(=O)n1-c1ccc(F)cc1 | inconclusive [falling, partial curve]
Cc1nn(-c2ccccc2)c(C)c1NC(=O)COc1ccc(C#N)cc1 | inconclusive [falling, single point]
Cc1ccc(-c2csc(Nc3ccc(S(N)(=O)=O)cc3)n2)o1 | active: 10.7 µM
CCOc1cccc(NC(=O)/C(C#N)=C\c2cn(CC(=O)O)c3ccccc23)c1 | inconclusive [falling, single point]
CC(=O)c1ccc(N2CCN(C(=O)CCCn3c(=S)[nH]c4cc5c(cc4c3=O)OCO5)CC2)cc1 | inactive
COc1ccc(N=C2S/C(=C\c3ccc(OCC(=O)O)cc3)C(=O)N2CCc2c[nH]c3ccccc23)cc1 | active: 1.07 µM
O=C(O)c1cc2c(ccc3ccccc32)o1 | inconclusive [activator, single point]
COc1ccc(S(=O)(=O)N2CCN(C(=O)CCCN3C(=O)NC4(CCCC4)C3=O)CC2)cc1 | inconclusive [activator, single point]
OCCNCc1c(OCc2ccc(Cl)cc2)ccc2ccccc12 | inactive
C[C@@H]1O[C@@H](O[C@@H]2[C@@H](O)[C@H](OCCc3ccc(O)c(O)c3)O[C@H](CO)[C@H]2OC(=O)/C=C/c2ccc(O)c(O)c2)[C@H](O)[C@H](O)[C@H]1O | active: 1.69 µM
CCOC(=O)c1ccc(N2C(=O)CC(SCC(=O)Nc3ccc(S(N)(=O)=O)cc3)C2=O)cc1 (stereo not drawn) | inactive
CCCCC[C@H](O)/C=C/[C@H]1C=CC(=O)[C@@H]1C/C=C\CCCC(=O)O | active: 30.1 µM
CN(C)CCN(C(=O)CCS(=O)(=O)c1ccccc1)c1nc2cc3c(cc2s1)OCO3 | inconclusive [falling, single point]
COc1ccccc1N1CCN(C(=O)C(C)CS(=O)(=O)c2ccc3c(c2)NC(=O)CS3)CC1 (stereo not drawn) | active: 23.9 µM

Structure (SMILES) | Potency
Nc1ccc(O)c2c1C(=O)c1ccccc1C2=O | inconclusive [falling, partial curve]
CC(=O)NC1=NC(=O)/C(=C/c2cc(C)n(-c3cccc(C(=O)O)c3)c2C)S1 | inconclusive [falling, partial curve]
CCn1c(CCNC(=O)c2ccc(OC)cc2)nnc1SCc1ccc(Cl)c(Cl)c1 | active: 16.9 µM
COC(=O)C(CC(=O)c1ccc(Br)cc1)n1nc(C)cc1C (stereo not drawn) | inconclusive [falling, partial curve]
O=C(NCCc1ccc(F)cc1)Nc1ccc2c(c1)OCO2 | inconclusive [falling, partial curve]
O=S(=O)(c1ccc(Cl)nc1)N1CCN(Cc2ccc3c(c2)OCO3)CC1 | inactive
C/C=C/c1ccc(OCC(=O)Nc2cc(Cl)ccc2-n2cncn2)c(OC)c1 | inconclusive [falling, single point]
Nc1nc(SCc2ccc(Cl)c(Cl)c2)n[nH]1 | active: 13.5 µM
N#C/C(=C\c1ccco1)Sc1nc2ccccc2s1 | inconclusive [falling, single point]
CCOC(=O)Cc1[nH]nc2c1C(c1cc(OC)ccc1OC)C(C#N)=C(N)O2 (stereo not drawn) | inconclusive [falling, single point]
COC(=O)c1[nH]c2ccccc2c1NS(=O)(=O)c1ccc(F)c(C)c1 | inactive
COc1ccccc1NC(=O)C(=O)NNS(=O)(=O)c1ccc2ccccc2c1 | inconclusive [falling, single point]
O=[N+]([O-])c1ccc(-n2nnnc2-c2ccccc2)cc1 | inactive
COc1cc(/C=C(\CC(=O)O)c2nc3ccccc3s2)cc(OC)c1O | inconclusive [activator, single point]
COc1ccc(-n2c(CNc3ccc(C)cc3)nnc2SCc2ccccc2)cc1 | inconclusive [falling, single point]
Cc1ccc([N+](=O)[O-])cc1NC(=O)Nc1onc(C)c1C | inconclusive [falling, partial curve]
Cc1ccc(NC(=O)Cn2c(C)cc(C)c(C#N)c2=O)c(Cl)c1 | inactive
Nc1sc2c(c1C(=O)NC1CCS(=O)(=O)C1)CCC2 (stereo not drawn) | inconclusive [falling, single point]
O=C(/C=C/c1ccc(S(=O)(=O)NCc2ccco2)cc1)NCc1cccc(Cl)c1 | active: 26.9 µM
c1ccc2c(c1)oc1c(NCC3CCCO3)ncnc12 (stereo not drawn) | inactive
CC(=O)Nc1ccc(C(=O)OCc2ccc(F)cc2)cc1 | inconclusive [falling, full curve, poor fit]
COc1ccc(CC(=O)Nc2ccc(C(N)=O)cc2)cc1 | inactive
CN1CCCN(S(=O)(=O)c2ccc3ccccc3c2)CC1 | inactive
O=C1SC(SCc2ccccc2Cl)=N/C1=C\c1ccc(C(=O)O)cc1 | inconclusive [activator, single point]
Cc1ccc(NC(=O)CCS(=O)(=O)c2ccc3c(c2)NC(=O)C(C)S3)cc1Cl (stereo not drawn) | inactive

Structure (SMILES) | Potency
CN(C)c1ccc(NC(=O)c2ccc(Cn3cc([N+](=O)[O-])cn3)cc2)cc1 | active: 23.9 µM
CN(C)c1ccc(NC(=O)COC(=O)c2cc(Cl)ccc2[N+](=O)[O-])cc1 | inactive
CC(=O)Nc1ccc(C2=NNC(=Nc3ccc(S(=O)(=O)N4CCOCC4)cc3)SC2)cc1 | inconclusive [falling, partial curve]
O=C(NCc1cccc(Cl)c1)c1ccc(N2CC3CC(C2)c2cccc(=O)n2C3)c(NC(=O)c2cccnc2)c1 (stereo not drawn) | inconclusive [falling, partial curve]
COc1cc(NC(=O)c2cccs2)c(C(=O)OCC(=O)NCc2ccco2)cc1OC | inconclusive [falling, full curve]
O=C(O)CCNC(=O)CCCn1nnc2ccccc2c1=O | inconclusive [falling, partial curve]
CC1=C/C(=C\c2ccc(Br)o2)C(=O)O1 | inconclusive [falling, single point]
Cc1ccc(-c2c[n+](Cc3cccc(Cl)c3)c3n2CCC3)cc1 | inconclusive [falling, partial curve]
Cc1ccc(C(=O)n2c(N)nc3ccccc32)cc1 | inactive
COc1cccc(NC(=O)CN(C)C(=O)c2ccccc2-c2nc3ccccc3s2)c1 | inconclusive [activator, single point]
Cn1c(=O)[nH]c(=O)c2c1nc(SCCN1CCCCC1)n2CCCc1ccccc1 | inconclusive [falling, partial curve]
Cc1c(C(=S)NC(=O)C2CC2)c(=O)n(-c2ccccc2)n1C | inconclusive [falling, single point]
CN(C)S(=O)(=O)N(CC(=O)N(Cc1ccccc1)Cc1ccccc1)c1ccccc1 | inconclusive [falling, single point]
COc1cc(/C=C2\SC(=O)N(c3ccc(O)cc3)C2=O)cc(OC)c1OC | inactive
COc1ccc(S(=O)(=O)n2cnc3cc(C)c(C)cc32)cc1 | inactive
CC(C(=O)Nc1ccccc1C(=O)N1CCOCC1)N(c1ccc(Cl)cc1)S(C)(=O)=O (stereo not drawn) | inactive
COC(=O)c1[nH]c2ccc(C)cc2c1NC(=O)CN1CCCc2ccccc21 | inconclusive [activator, partial curve]
COc1ccc2ccccc2c1-c1sc(Nc2ccccc2)n[n+]1-c1ccc(F)cc1 | inactive
CCOCCCNC(=O)/C(C#N)=C/c1cc(OC)c(O)c([N+](=O)[O-])c1 | inconclusive [activator, single point]
O=S(=O)(c1cccc2ccccc12)N1CCCCC1 | inactive
Cc1ccc2c(=O)cc(C(=O)NCCc3ccc(S(N)(=O)=O)cc3)oc2c1C | inactive
O=C(NCCCn1ccnc1)Nc1ccc(Cl)cc1 | inconclusive [falling, single point]
CC1(NC(=O)CCc2nc3sc4c(c3c(=O)[nH]2)CCCC4)CCS(=O)(=O)C1 (stereo not drawn) | inconclusive [falling, single point]
